# Reference: the supplement of paper PMC11098506
# ± gives the standard deviation of the averaged measurements.
# B1: VDAC2; numbered along this chain (parent)
# chain: MATHGQTCARPMCIPPSYADLGKAARDIFNKGFGFGLVKLDVKTKSCSGVEFSTSGSSNTDTGKVTGTLETKYKWCEYGLTFTEKWNTDNTLGTEIAIEDQICQGLKLTFDTTFSPNTGKKSGKIKSSYKRECINLGCDVDFDFAGPAIHGSAVFGYEGWLAGYQMTFDSAKSKLTRNNFAVGYRTGDFQLHTNVNDGTEFGGSIYQKVCEDLDTSVNLAWTSGTNCTRFGIAAKYQLDPTASISAKVNNSSLIGVGYTQTLRPGVKLTLSALVDGKSINAGGHKVGLALELEA
# Variants of: B1
# Assay: log2 fold difference of barcode abundance, FLAG-VDAC2-high vs FLAG-VDAC2-low sorted fraction (expression level) (log2 ratio); higher = higher VDAC2 variant expression
# Conditions: Mcl1-/- Bax-/- Vdac2-/- MEF
# Method: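 Deep mutational scan of human VDAC2 (FLAG-tagged) with single amino acid substitutions at positions Q165–F180, each barcoded clone expressed in Mcl1/Bax/Vdac2-deficient MEFs. Cells were stained with PE anti-FLAG and sorted into FLAG-high and FLAG-low fractions, and barcodes were counted by Illumina sequencing. The score is log2(CPM) in FLAG-high minus log2(CPM) in FLAG-low, per barcode; barcodes of the same variant are averaged.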
row,Variant,log2 fold difference
1,K174W,0.189 ± 1.1
2,K174Y,1.33 ± 2
3,L175A,1.56 ± 1.7
4,L175C,0.471 ± 2.1
5,L175D,-0.428 ± 1.1
6,L175E,0.898 ± 2.3
7,L175F,1.27 ± 2.4
8,L175G,1.52 ± 2
9,L175H,0.84 ± 1.1
10,L175I,2.46 ± 2.3
11,L175K,1.09 ± 2
12,L175M,-0.24 ± 0.8
13,L175N,1.22 ± 2.7
14,L175P,0.99 ± 2.4
15,L175Q,2.57 ± 2.5
16,L175R,0.512 ± 1.5
17,L175S,0.642 ± 2.2
18,L175T,0.632 ± 2.4
19,L175V,1.16 ± 1.9
20,L175W,-0.202 ± 1.1
21,L175Y,0.996 ± 1.8
22,T176A,1.25 ± 2.4
23,T176C,1.33 ± 2.1
24,T176D,1.19 ± 2.6

row,Variant,log2 fold difference
1,T176E,0.745 ± 0.98
2,T176F,1.37 ± 2
3,T176G,0.957 ± 1.9
4,T176H,-0.743 ± 2.5
5,T176I,0.51 ± 2.1
6,T176K,2.13 ± 1.9
7,T176L,0.964 ± 1.6
8,T176M,2.24 ± 2.5
9,T176N,1.25 ± 1.6
10,T176P,0.905 ± 2
11,T176Q,1.11 ± 2.1
12,T176R,1.21 ± 1.8
13,T176S,1.5 ± 1.8
14,T176V,1.86 ± 2.1
15,T176W,0.487 ± 1.9
16,T176Y,1.41 ± 2.3
17,R177A,0.751 ± 1.6
18,R177C,1.1 ± 1.6
19,R177D,0.965 ± 2.1
20,R177E,1.85 ± 2
21,R177F,0.483 ± 1.8
22,R177G,1.21 ± 1.8
23,R177H,1.53 ± 2.1
24,R177I,0.478 ± 1.7

row,Variant,log2 fold difference
1,R177K,2.21 ± 0.98
2,R177L,1.44 ± 2
3,R177M,-0.0113 ± 0.79
4,R177N,1.36 ± 1.6
5,R177P,-0.195 ± 1.9
6,R177Q,0.118 ± 0.59
7,R177S,1.35 ± 1.6
8,R177T,1.86 ± 2.2
9,R177V,0.985 ± 1.6
10,R177W,0.158 ± 2
11,R177Y,2.41 ± 2.1
12,N178A,0.888 ± 1.9
13,N178C,1.12 ± 1.1
14,N178D,0.592 ± 2.2
15,N178E,0.543 ± 2.4
16,N178F,1.21 ± 2.4
17,N178G,0.838 ± 2.2
18,N178H,1.33 ± 2
19,N178I,0.42 ± 1.3
20,N178K,0.827 ± 1.8
21,N178L,0.926 ± 2
22,N178M,1.31 ± 1.9
23,N178P,0.19 ± 1.4
24,N178Q,1.94 ± 2.2

row,Variant,log2 fold difference
1,N178R,1.35 ± 1.8
2,N178S,1.76 ± 2.4
3,N178T,1.35 ± 2
4,N178V,1.82 ± 1.9
5,N178W,1.85 ± 2.3
6,N178Y,0.758 ± 1.1
7,N179A,2.16 ± 2.3
8,N179C,1.9 ± 2.4
9,N179D,0.762 ± 2.2
10,N179E,2.48 ± 2.3
11,N179F,1.28 ± 2.4
12,N179G,1.31 ± 2.1
13,N179H,2.09 ± 2.1
14,N179I,0.827 ± 1.7
15,N179K,1.71 ± 2.1
16,N179L,0.81 ± 1.9
17,N179M,1.21 ± 2.3
18,N179P,-0.116 ± 3.4
19,N179Q,0.935 ± 2.3
20,N179R,1.53 ± 2.2
21,N179S,1.17 ± 2.3
22,N179T,1.66 ± 1.5
23,N179V,0.173 ± 1.2
24,N179W,-0.521 ± 1.5

row,Variant,log2 fold difference
1,N179Y,0.571 ± 2.2
2,F180A,0.51 ± 1.7
3,F180C,0.76 ± 2
4,F180D,-1.87 ± 1.6
5,F180E,-0.934 ± 1.8
6,F180G,-0.502 ± 1.8
7,F180H,0.107 ± 2.8
8,F180I,1.22 ± 1.6
9,F180K,-2.72 ± 1.3
10,F180L,0.637 ± 2
11,F180M,0.909 ± 2.6
12,F180N,-1.23 ± 1.9
13,F180P,-0.923 ± 1.1
14,F180Q,0.421 ± 1.5
15,F180R,-1.19 ± 1.8
16,F180S,-0.373 ± 2.4
17,F180T,-0.223 ± 1.4
18,F180V,0.933 ± 1.8
19,F180W,1.08 ± 2.5
20,F180Y,1.46 ± 2.2
21,unchanged,1.16 ± 2.2
